# Values joined by “and” are separate entries in the source; they are usually repeats but may differ in a detail not shown here. Equal values may be shown once. In all, about 420,000 compounds went through this assay and about 50,000 (12%) were called active. Inconclusive means that the source gave no clear call. Such entries were picked first, then a sample of the others. Calls follow the shape of the dose curve; as a rule, active = well fitted inhibition curve with a large enough effect; inconclusive = small, poorly fitted or top-dose-only effect; inactive = flat fitted curve, though single readings scatter. Potencies beside an inconclusive call are fits to weak or partial responses and may not hold up.
# Test: qHTS for Inhibitors of human tyrosyl-DNA phosphodiesterase 1 (TDP1): qHTS in cells in presence of CPT; also: nearly all actives have a fitted effect of over 55% in size
# Conditions: chicken DT40 Tdp1-/-;hTDP1 cells + 20 nM CPT, ATP luminescence, 48 h; activity change, negative = growth inhibition: at 46.2 µM (top of the series) unless noted
# How it was run: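 Cell growth measured by CellTiter-Glo luminescence after a minimum 48 h, 37 C compound exposure with 20 nM CPT in Tdp1-knockout DT40 cells stably expressing hTDP1, seeded 400/well; qHTS titration format.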
# % is scaled to controls: 0 for no effect and ±100 for the full control effect; potency is read from the fitted curve at half-maximal effect; tags tell the direction and shape of the fitted curve.
SMILES,Potency,"activity change, negative = growth inhibition"
CC(C)=NNc1nc(-c2ccccc2)cs1,"inconclusive: 29.1 µM [inhibitor, single point]",–
CC(C)OC(=O)CCCCCN1C(=O)CSC1=S,inactive,–
Cc1ccc(-c2noc(CN3CCN(Cc4ccccc4)CC3)n2)cc1,–,inconclusive: -31.6% [inhibitor]
COC(=O)C1=CN(c2ccc(OC)cc2)C(N)=C(C#N)C1c1ccccc1F (centres undefined),active: 10.3 µM,–
C=C1CCN([C@H](C(=O)OCc2cccc(C)c2)C(C)C)S(=O)(=O)c2ccccc21,"inconclusive: 29.1 µM [inhibitor, single point]",–
COc1cc(CN(C)CC2CCCN(CCc3cccc(C(F)(F)F)c3)C2)ccc1O (centres undefined),"inconclusive: 29.1 µM [inhibitor, single point]",–
O=C(CSc1oc(-c2ccc(F)cc2)nc1S(=O)(=O)c1ccc(Cl)cc1)c1ccccc1,active: 16.4 µM,–
CCOc1ccc(OCC)c(Nc2cc(C)nc3nc(C)nn23)c1,active: 18.4 µM,–
O=[N+]([O-])c1cccc(-c2ccc(CN3CCN(c4ccccc4)CC3)o2)c1,–,inconclusive: -32.3% [inhibitor]
Cc1cc(/C=N/n2cnnc2)c(C)n1-c1ccc2c(c1)OCO2,"inconclusive: 29.1 µM [inhibitor, single point]",–
Cc1ccc(CN2CCN(c3ncccn3)CC2)o1,inactive,–
CCCC1=Nc2cc(C(=O)NCCCOC(C)C)ccc2Sc2ccccc21,active: 4.61 µM,–
CC1Sc2ccc(S(=O)(=O)CCC(=O)NC3CCCCC3C)cc2NC1=O (centres undefined),"inconclusive: 29.1 µM [inhibitor, single point]",–
COC(=O)c1ccc(COc2ccc(/C=N/NC(=O)C(=O)Nc3ccc(OC)cc3)cc2OC)o1,inactive,–
COC(=O)c1c(C)nn(-c2ccccc2)c1-n1cccc1,"inconclusive: 23.1 µM [inhibitor, single point]",–
O=C(NC1CCN(C(=S)Nc2ccc(F)cc2)CC1)C1CCCCC1,inactive,–
COc1cccc(OC)c1OCC(C)CNCC1CCCO1 (centres undefined),inactive,–
COc1cc(OC)c(-c2nn3c(C4CCCCC4)nnc3s2)cc1OC,"inconclusive: 29.1 µM [inhibitor, single point]",–
COC(=O)c1ccc(CN=C(NS(=O)(=O)c2ccccc2)c2ccccc2)cc1,"inconclusive: 29.1 µM [inhibitor, single point]",–
COc1ccccc1NS(=O)(=O)c1ccc(C)c(NC(=O)c2ccc(S(=O)(=O)N3CCCCCC3)cc2)c1,"inconclusive: 11.6 µM [inhibitor, partial curve]",–
Cc1cccc(CCNC(=O)c2nn(C)c3c2CSc2ccccc2-3)c1,inactive,–
O=C(c1ccc2c(c1)N(Cc1cccc(Cl)c1)C(=O)c1ccccc1S2(=O)=O)N1CCCCCC1,active: 18.4 µM,–
CCOc1cc(CNc2ccc(S(N)(=O)=O)cc2)cc(Cl)c1OC,"inconclusive: 29.1 µM [inhibitor, single point]",–
CCN1CCN(C(=O)/C=C/c2c(F)cccc2Cl)CC1,inactive,–
Cc1ccc(NC(=O)C(C)OC(=O)/C=C/c2ccccc2)cc1 (centres undefined),"inconclusive: 18.4 µM [inhibitor, single point]",–

SMILES,Potency,"activity change, negative = growth inhibition"
CCC1CCC/C1=N\NC(=O)c1ccc(Cl)cc1 (centres undefined),inactive,–
Cc1onc(-c2c(Cl)cccc2Cl)c1C(=O)N1C=CC(C(F)(F)F)=NCC1,–,inconclusive: -37.3% [inhibitor]
CC(C)CSc1nc2ccccc2c(=O)[nH]1,"inconclusive: 29.1 µM [inhibitor, single point]",–
c1coc(CNc2ncnc3c2oc2ccccc23)c1,"inconclusive: 29.1 µM [inhibitor, single point]",–
COc1cc2cc(CN(CCCN3CCOCC3)Cc3nnnn3Cc3ccccc3)c(=O)[nH]c2cc1OC,inactive,–
Cc1noc(C)c1CN1C(=O)c2cccc([N+](=O)[O-])c2C1=O,inactive,–
CCCCOC(=O)c1c(C)oc2ccc(NS(=O)(=O)c3ccc(F)cc3C)cc12,"inconclusive: 29.1 µM [inhibitor, single point]",–
COc1ccc(-n2nnnc2S(=O)(=O)Cc2ccc(C(=O)O)cc2)cc1,active: 14.6 µM,–
Cc1noc(C)c1C(=O)N1CCC2(CC1)CN(c1cccc(-c3ccccc3)c1)C2,"inconclusive: 16.4 µM [inhibitor, single point]",–
S=c1[nH]nc(-c2ccc(Cl)cc2)n1/N=C/C=C/c1ccco1,"inconclusive: 29.1 µM [inhibitor, single point]",–
Cc1cc(F)ccc1-c1cc(C(=O)Nc2ccccc2)[nH]n1,"inconclusive: 10.3 µM [inhibitor, single point]",–
COc1ccc(N2CCN(C(CNC(=O)c3cccc(OC)c3)c3cccnc3)CC2)cc1 (centres undefined),"inconclusive: 18.4 µM [inhibitor, single point]",–
CCCc1cc(C(=O)Cc2ccc(F)cc2)c(O)cc1O,"inconclusive: 25.9 µM [inhibitor, single point]",–
Cc1cccc2cc(-c3nc4ccc(C(=O)O)cc4[nH]3)c(=O)oc12,"inconclusive: 7.31 µM [inhibitor, partial curve, poor fit]",–
COc1ccc(C(=O)N2CCN(c3cccc(Cl)c3)CC2)cc1S(=O)(=O)NC1CC1,active: 14.6 µM,–
CCOC(=O)C(=O)N(C)c1c(CC)nc2c(OCc3ccc(Cl)cc3)cccn12,"inconclusive: 20.6 µM [inhibitor, single point]",–
CCOc1cc2[nH]c(=S)n(CCN3CCC(C)CC3)c(=O)c2cc1OCC,inactive,–
CCOC(=O)c1[nH]c2ccc(OC)cc2c1NC(C)=O,inactive,–
CCOC(=O)C(CC)(CC)C(=O)/C=C/c1ccc(Br)cc1,"inconclusive: 25.9 µM [inhibitor, single point]",–
COC(=O)c1ccc(NC(=O)C2CC(=O)N(c3ccc(C)cc3)C2)cc1 (centres undefined),inactive,–
CCc1ccc2nc3sc(C(=O)Nc4nnc(CC)s4)c(N)c3cc2c1,"inconclusive: 20.6 µM [inhibitor, partial curve]",–
C[C@H](NC(=O)C1CC(=O)N(c2ccc3c(c2)OCCO3)C1)C(=O)NCc1ccco1 (some centres undefined),inactive,–
COCCCNC(=O)C(C#N)c1nc2ccccc2nc1N1CCN(Cc2ccccc2)CC1 (centres undefined),active: 23.1 µM,–
O=C(N/N=C/C(Br)=C/c1ccccc1)NC1CCCCC1,active: 9.2 µM,–
Cc1ccccc1Cn1c(C)c(C(=O)N(C)Cc2ccc(F)cc2)sc1=O,"inconclusive: 29.1 µM [inhibitor, single point]",–

SMILES,Potency,"activity change, negative = growth inhibition"
Cc1sc2ncnc(N3CCC(C(=O)NNC(=O)COc4ccccc4F)CC3)c2c1C,"inconclusive: 23.1 µM [inhibitor, single point]",–
CCOc1ccc(C(=O)NNC(=O)CN2C(=O)NC3(CCCC3)C2=O)cc1,inactive,–
COCCN(C(=S)Nc1c(C)cccc1C)C(C)c1ccco1 (centres undefined),"inconclusive: 20.6 µM [inhibitor, single point]",–
CC1COc2ccccc2N1C(=O)c1ccc(Cl)cc1 (centres undefined),inactive,–
CCCCNC(=O)CSC1=Nc2ccccc2C2=NC(CCC(=O)NCc3ccccc3OC)C(=O)N12 (centres undefined),"inconclusive: 20.6 µM [inhibitor, single point]",–
CC(C)(C)C(=O)Nc1cccc2[nH]ncc12,inactive,–
COc1ccc(NC(=O)COc2cccc3c2CCNC3=O)cc1,"inconclusive: 1.3 µM [inhibitor, single point]",–
CC(C)=NOc1nc(N(C)C)nc(N2CCOCC2)n1,"inconclusive: 32.6 µM [inhibitor, single point]",–
O=C1CC2(CCCC2)CC(=O)N1CCCCNC[C@H]1COc2ccccc2O1,"inconclusive: 33.5 µM [inhibitor, single point]",–
CCc1nnc(NC(=O)CSc2nnc(-c3ccoc3C)n2-c2ccccc2)s1,inactive,–
O=c1oc2c(O)c(O)cc3c(=O)oc4c(O)c(O)cc1c4c23,"inactive and inconclusive: 29.1 µM [inhibitor, single point]",–
O=[N+]([O-])c1ccc(CN2CCC(Cc3ccccc3)CC2)cc1,–,inconclusive: -30.8% [inhibitor]
CC(CC(=O)NCc1ccc(Cl)cc1Cl)CC1=NS(=O)(=O)c2ccccc2N1 (centres undefined),"inconclusive: 25.9 µM [inhibitor, single point]",–
Cc1cccc(OCCNc2cc(N3CCOCC3)ccc2[N+](=O)[O-])c1,"inconclusive: 29.1 µM [inhibitor, single point]",–
Cc1ccc(S(=O)(=O)N(c2ccc(Br)cc2)C2C=CS(=O)(=O)C2)cc1 (centres undefined),inactive,–
c1ccc(-c2ccc(N3CCCC4(CCNCC4)C3)cc2)cc1,active: 5.8 µM,–
N=C1C(c2nc3ccccc3[nH]2)=C(O)CN1c1ccc(F)cc1,–,inconclusive: -30.2% [inhibitor]
CCN(CC)C(=O)Cn1c(=O)n(CC(=O)N2CCCCC2)c(=O)c2sccc21,inactive,–
CC(=O)OC(COC1C[C@@H]2CC[C@@]1(C)C2(C)C)C[N+]1(C)CCCCC1 (some centres undefined),"inconclusive: 14.6 µM [inhibitor, partial curve, poor fit]",–
CCOc1cc(/C=C2\SC(=N)N(c3nonc3N)C2=O)ccc1OCC(N)=O,–,inconclusive: -35.5% [inhibitor]
O=c1c2c(nc3c(-c4ccc(Cl)cc4)c[nH]n13)CCC2,active: 2.31 µM,–
CCOc1ccc(S(=O)(=O)Nc2cccc(C(=O)NCCCn3ccnc3)c2)cc1,–,inconclusive: -31.4% [inhibitor]
COc1ccc(NC(=O)C[C@H]2C(=O)N(Cc3ccccc3)C[C@@H]2Cc2ccccc2)cc1,active: 18.4 µM,–
O=c1c2sccc2n(Cc2cccc(F)c2)c(=O)n1-c1ccc(F)cc1,active: 14.6 µM,–

# Source: PubChem BioAssay AID686979 (National Center for Advancing Translational Sciences (NCATS), 2013)
